In the supplement of paper PMC8728848:
Some of the results follow.

Key:
Test in all cases: glycan array binding signal (z-score within array); higher = stronger binding
Details in all cases: glycan notation: IUPAC condensed, linker removed
Fuc(a1-2)Gal = molecular target: Fuc(a1-2)Gal
In short: (§1)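 The binding signal is a Z-score computed within each array. Data were drawn from 3228 arrays in the Consortium for Functional Glycomics database, restricted to those with a known protein sequence. Scores were averaged over arrays of the same protein sequence at different concentrations or buffers, and over linkers, and negative values can be taken as non-binding.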

Fuc(a1-2)Gal(b1-3)GalNAc = molecular target: Fuc(a1-2)Gal(b1-3)GalNAc
In short: as §1

[1] = molecular target: Fuc(a1-2)Gal(b1-3)GalNAc(b1-3)Gal
In short: as §1

[2] = molecular target: Fuc(a1-2)Gal(b1-3)GalNAc(b1-3)Gal(a1-4)Gal(b1-4)Glc
In short: as §1

[3] = molecular target: Fuc(a1-2)Gal(b1-3)GalNAc(b1-4)[Neu5Ac(a2-3)]Gal(b1-4)Glc
In short: as §1

Fuc(a1-2)Gal(b1-3)GlcNAc = molecular target: Fuc(a1-2)Gal(b1-3)GlcNAc
In short: as §1

[4] = molecular target: Fuc(a1-2)Gal(b1-3)[Fuc(a1-4)]GlcNAc
In short: as §1

Fuc(a1-2)Gal(b1-4)Glc = molecular target: Fuc(a1-2)Gal(b1-4)Glc
In short: as §1

Fuc(a1-2)Gal(b1-4)GlcNAc = molecular target: Fuc(a1-2)Gal(b1-4)GlcNAc
In short: as §1

[5] = molecular target: Fuc(a1-2)Gal(b1-4)GlcNAc(b1-3)Gal(b1-4)GlcNAc
In short: as §1

[6] = molecular target: Fuc(a1-2)Gal(b1-4)GlcNAc(b1-3)Gal(b1-4)GlcNAc(b1-3)Gal(b1-4)GlcNAc
In short: as §1

[7] = molecular target: Fuc(a1-2)Gal(b1-4)[Fuc(a1-3)]GlcNAc
In short: as §1

Fuc(a1-2)GlcNAc = molecular target: Fuc(a1-2)GlcNAc
In short: as §1

Fuc(a1-2)[Gal(a1-3)]Gal = molecular target: Fuc(a1-2)[Gal(a1-3)]Gal
In short: as §1

[8] = molecular target: Fuc(a1-2)[Gal(a1-3)]Gal(b1-4)GlcNAc
In short: as §1

[9] = molecular target: Fuc(a1-2)[Gal(a1-4)]Gal(b1-4)GlcNAc
In short: as §1

[10] = molecular target: Fuc(a1-2)[GalNAc(a1-3)]Gal
In short: as §1

[11] = molecular target: Fuc(a1-2)[GalNAc(a1-3)]Gal(b1-4)GlcNAc
In short: as §1

[12] = molecular target: Fuc(a1-2)[GalNAc(a1-4)]Gal(b1-4)GlcNAc
In short: as §1

[13] = molecular target: Fuc(a1-2)[GalNAc(b1-3)]Gal
In short: as §1

Fuc(a1-3)GlcNAc = molecular target: Fuc(a1-3)GlcNAc
In short: as §1

[14] = molecular target: Fuc(a1-3)[Gal(b1-4)]GlcNAc
In short: as §1

[15] = molecular target: Fuc(a1-3)[Gal(b1-4)]GlcNAc(b1-3)Gal(b1-4)[Fuc(a1-3)]GlcNAc
In short: as §1

[16] = molecular target: Fuc(a1-3)[Gal(b1-4)]GlcNAc(b1-3)Gal(b1-4)[Fuc(a1-3)]GlcNAc(b1-3)Gal(b1-4)[Fuc(a1-3)]GlcNAc
In short: as §1

[17] = molecular target: Fuc(a1-3)[Gal3S(b1-4)]GlcNAc
In short: as §1

Fuc(b1-3)GlcNAc = molecular target: Fuc(b1-3)GlcNAc
In short: as §1

Gal(a1-2)Gal = molecular target: Gal(a1-2)Gal
In short: as §1

Gal(a1-3)Gal = molecular target: Gal(a1-3)Gal
In short: as §1

Gal(a1-3)Gal(b1-4)Glc = molecular target: Gal(a1-3)Gal(b1-4)Glc
In short: as §1

Gal(a1-3)Gal(b1-4)GlcNAc = molecular target: Gal(a1-3)Gal(b1-4)GlcNAc
In short: as §1

[18] = molecular target: Gal(a1-3)Gal(b1-4)[Fuc(a1-3)]GlcNAc
In short: as §1

Gal(a1-3)GalNAc = molecular target: Gal(a1-3)GalNAc
In short: as §1

[19] = molecular target: Gal(a1-3)[Gal(a1-4)]Gal(b1-4)GlcNAc
In short: as §1

Gal(a1-4)Gal(b1-4)Glc = molecular target: Gal(a1-4)Gal(b1-4)Glc
In short: as §1

Gal(a1-4)Gal(b1-4)GlcNAc = molecular target: Gal(a1-4)Gal(b1-4)GlcNAc
In short: as §1

Gal(a1-4)GlcNAc = molecular target: Gal(a1-4)GlcNAc
In short: as §1

B1: CGL3 (Coprinopsis cinerea) (protein)
chain: MGHHHHHHHHSGFHILRLESTVDLSEPLKDNGIIVFQSDKLDLEPSPNLGPTGIDNTNVNLINAKGDVLLHIGIRRRENAFVFNSIPYGESRGPEERIPLEGTFGDRRDPSITVFDHPDRYQIMIDYKTVYYYKKRLEGRCEKVSYKINEGQTPPFSDVLGVTVLYFANVMPRAN
- glycan array binding signal (z-score) (Fuc(a1-2)Gal): -0.172
- glycan array binding signal (z-score) (Fuc(a1-2)Gal(b1-3)GalNAc): -0.196
- glycan array binding signal (z-score) [1]: 0.101
- glycan array binding signal (z-score) [2]: 0.189
- glycan array binding signal (z-score) [3]: -0.167
- glycan array binding signal (z-score) (Fuc(a1-2)Gal(b1-3)GlcNAc): -0.196
- glycan array binding signal (z-score) [4]: -0.209
- glycan array binding signal (z-score) (Fuc(a1-2)Gal(b1-4)Glc): -0.2
- glycan array binding signal (z-score) (Fuc(a1-2)Gal(b1-4)GlcNAc): -0.206
- glycan array binding signal (z-score) [5]: -0.175
- glycan array binding signal (z-score) [6]: -0.205
- glycan array binding signal (z-score) [7]: -0.152
- glycan array binding signal (z-score) (Fuc(a1-2)GlcNAc): -0.199
- glycan array binding signal (z-score) (Fuc(a1-2)[Gal(a1-3)]Gal): -0.212
- glycan array binding signal (z-score) [8]: -0.2
- glycan array binding signal (z-score) [9]: -0.189
- glycan array binding signal (z-score) [10]: -0.207
- glycan array binding signal (z-score) [11]: -0.193
- glycan array binding signal (z-score) [12]: -0.216
- glycan array binding signal (z-score) [13]: -0.134
- glycan array binding signal (z-score) (Fuc(a1-3)GlcNAc): -0.176
- glycan array binding signal (z-score) [14]: -0.213
- glycan array binding signal (z-score) [15]: -0.138
- glycan array binding signal (z-score) [16]: -0.206
- glycan array binding signal (z-score) [17]: -0.19
- glycan array binding signal (z-score) (Fuc(b1-3)GlcNAc): -0.18
- glycan array binding signal (z-score) (Gal(a1-2)Gal): -0.194
- glycan array binding signal (z-score) (Gal(a1-3)Gal): -0.199
- glycan array binding signal (z-score) (Gal(a1-3)Gal(b1-4)Glc): -0.206
- glycan array binding signal (z-score) (Gal(a1-3)Gal(b1-4)GlcNAc): -0.21
- glycan array binding signal (z-score) [18]: -0.216
- glycan array binding signal (z-score) (Gal(a1-3)GalNAc): -0.208
- glycan array binding signal (z-score) [19]: -0.217
- glycan array binding signal (z-score) (Gal(a1-4)Gal(b1-4)Glc): 0.612
- glycan array binding signal (z-score) (Gal(a1-4)Gal(b1-4)GlcNAc): -0.049
- glycan array binding signal (z-score) (Gal(a1-4)GlcNAc): -0.204
